# Test results as given in PubChem BioAssay AID504832 (National Center for Advancing Translational Sciences (NCATS), 2011).
# The whole screen tested about 310,000 compounds, of which about 18,000 (5.8%) were called active. The inconclusive results got no clear call from the source; some entries with a clear call stand among them for comparison. Calls come from the whole dose curve; as a rule, active = well fitted inhibition curve with a large enough effect; inconclusive = small, poorly fitted or top-dose-only effect, or another doubt; inactive = no such curve, though single readings can be large or run the other way. No potency is given beside an inconclusive call; the fits are too rough.
# Assay: Primary qHTS for delayed death inhibitors of the malarial parasite plastid, 48 hour incubation
# Details: P. falciparum luciferase growth in erythrocytes; series mostly up to 28.7 µM; activity change, negative = inhibition: at the top concentration
# In short: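 Read-out is firefly luciferase luminescence from an integrated reporter in P. falciparum, so falling signal marks reduced parasite growth. Infected erythrocytes were at 2% hematocrit and 0.1% parasitemia (final) in Albumax-supplemented RPMI 1640.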
# % is set by controls: 0 for no effect and ±100 for the full control effect; potency is the fitted concentration of half-maximal effect; tags give direction and shape of the fitted curve.
Structure (SMILES),Potency,"activity change, negative = inhibition"
COc1ccc(COc2ccsc2C(=O)Nc2ccc(Cl)cc2)cc1,"inconclusive [inhibitor, single point]",
CNC[C@H](O)c1ccc(OC(=O)C(C)(C)C)c(OC(=O)C(C)(C)C)c1,"inconclusive [inhibitor, single point]",
CCN(CC(=O)Nc1c(F)cccc1F)C(=O)C1CCN(c2ncnc3sc(C)c(C)c23)CC1,active: 10.4 µM,
CC(CCc1ccccc1)NC(=O)c1ccc(Cl)nc1 (configuration not stated),,inactive: -4.04%
COc1ccccc1-n1c(SCC(=O)NC(C)(C)C)nc(O)cc1=O,active: 2.33 µM,
O=C(c1ccc(-c2ccccc2Cl)o1)N1CCN(c2ccccc2O)CC1,"inconclusive [inhibitor, single point]",
CNc1oc(/C=C/c2cccc(OC)c2)nc1C#N,,inactive: 69.4%
Cc1nnc(NC(=O)C2CCN(S(=O)(=O)c3cc([N+](=O)[O-])ccc3Cl)CC2)o1,,inactive: -21.1%
CCOc1ccc(S(=O)(=O)N2CCOCC2)cc1NC(=O)c1ccc(N2CCCC2=O)cc1,"inconclusive [inhibitor, partial curve, poor fit]",
O=[N+]([O-])c1ccccc1/C=N\N1CCN(Cc2ccccc2Cl)CC1,,inactive: 2.82%
Cc1ccc(-c2ccc(C(=O)O)[nH]2)cc1,,inactive: 30.5%
CCCOc1ccc(CSC(CC(=O)O)C(=O)O)cc1 (configuration not stated),"inconclusive [inhibitor, partial curve, poor fit]",
CCN(C(=O)c1coc(=O)c(Br)c1)c1ccc2c(c1)OCO2,"inconclusive [inhibitor, single point]",
O=S(=O)(c1ccc2c(c1)OCO2)N1CCN(c2nnnn2-c2ccccc2)CC1,"inconclusive [inhibitor, partial curve, poor fit]",
Cc1nc2c(c(=O)c3ccccc3n2C)c(=O)n1-c1ccccc1,"inconclusive [inhibitor, partial curve, poor fit]",
Cc1cc(-c2ccccc2C(=O)O)on1,,inactive: 2.55%
O=C(CN1CCC(C(=O)c2ccc(Cl)cc2)CC1)Nc1ccc2c(c1)OCCO2,,inactive: -20.4%
COc1cc2nc(C3CCC3)n(NC(=O)COc3ccccc3)c(=O)c2cc1OC,,inactive: -13.5%
Cc1ccnc(NC(=O)/C=C/c2ccccc2Cl)c1,,inactive: 122%
Cc1ccc(N2CCN(S(=O)(=O)c3nnc(NC(=O)c4ccco4)s3)CC2)cc1,"inconclusive [inhibitor, single point]",
COCCn1c(=O)c2c(nc3n2CCCN3CCc2ccccc2)n(C)c1=O,,inactive: -17.7%
O=C1NCN(c2ccccc2)C12CCNCC2,active: 2.62 µM,
